Reference: the supplement of paper PMC12632987
The full ranking holds about 4,500 sequences; the median of “median log2 fold change of GCK-ALFA target abundance (FLAG IP / Myc IP barcode read proportion)” is about 0.078, and the lowest 2% start at about -0.6. Some of the results follow.

B1: GBRAP_78_6636 (protein)
chain: ELEEEIDKKFRELDEILRKTEWASEEARDEALDEFVEAGSHHIELEEDPNNVEAAEEAAKHTEKLAEIAKKGALTLKDELVAAAKKLAEAYKKYAEELKK
B2: GBRAP_52_6074 (protein)
chain: KEEEIKKMAEEIYKAIKEGNKEKALKLLEEAIKKFSVEEITKMLELTAKLVASLGDEAHELFVDVLLEGEDLLLEAGISEDDALLIVGAAEAALAKAVAA
B3: GBRAP_52_6149 (protein)
chain: SAARAAAYARAFVAAVRAGDEARARAIMEEIAATMSDEEIAAFFAELARLVATLTPEEKERVVELAIEFEDIAIAAGHDEDLMSYQLARVAGAAYDALQA
B4: GBRAP_125_3058 (protein)
chain: SKEEAIEDLEELARALGYSEDEIAELRELARASSIKNTLIAIALAEGNEELAEALEKLSEEEVIKVLKEVAEELKANPDLTPEEVLALLLETAKKALEES
B5: GBRAP_128_3469 (protein)
chain: MTEEAVERTRKILEEMKKASPEEARELFKELFEWLLTLPLEVVEAVVEEIEKHLPELSAEKLEILAEVADEAMPKATPEKAALLADLRSSALLEAEKLEE
B6: GBRAP_160_4190 (protein)
chain: SEEVEKLIKEIKEIAEEAIELIKGQTYEERLVIVEGAFGQIIMLVMESDVVSDEAEEKIAEVADEAVEYLKKNPNLTEEEIKKLIKEATEKIIEIIKKYS
B7: GBRAP_128_3352 (protein)
chain: LDEARLARVRAMADAMVEADVATAAALMRELAAFINTLDDAEAEAAADIVIEALPRFTVEKLDAIADALRAARPEADPLKANLLADVEVAALNEAEELEE
B8: GBRAP_139_3755 (protein)
chain: SKTEEAIKEIVELVKDPNATLEEIEEKVKEIAKELDEESIKKVLKAAAEAAKSLSVERIEELEERFIKILKEEGRSEDVIDFLEGEFNEAAALSAYREEL
B9: GBRAP_184_5258 (protein)
chain: KVLEETVEFENVEELEEKMKEIYERAKASNADVVIHVEVKELTKEMIEALAEQIKKMKDDGYKGKITVGIDADLTEEMVDYTVKLFDEAGANVVLELPEE
B10: GBRAP_184_5118 (protein)
chain: EVVRESVEGTKAEELIRKAEEVVEKAAAEGKRLLLSVFAEDMSVEEIIRVIERLGELKKAHPEVEIILVVENEQSEEEVDKLVAAADAAGVRLVVALKEE
B11: GBRAP_160_4235 (protein)
chain: SEELEELREDITEEFELLLEVLLESPKSQWEAYARAFAGDVVQLVIENPEVSDEAEERVDEIAEQMVEDLIAAKDASPEEIRKLLEEYAEKIIEAVEEEL
B12: GBRAP_57_6442 (protein)
chain: MSRLEKAEELAEEIRRLLEENAPKEEILKKFEKLLELLSKEGLLDLLLLLDPSARADESKEELIKRLLEIFRRALEEEGKEKALEIVDLALGILEMEESE
B13: GBRAP_128_3159 (protein)
chain: SVEEAVARTRELLERIKAASPEEARRLARELAEYFKTLSPEEREAVTAVVLEALPELSLEKLEILADVLEEERPRDDPYLANLFAEVAVEALNEALELEE
B14: GBRAP_125_3125 (protein)
chain: EEEEALEDLARVLRALGFDDEDVAEAVELARRFSIKGTMYAAMKALGYDELADLVEQLSEEETREVVREVAAWLEAHPDATPEEVKAHLLEVARRAVAAS
B15: GBRAP_96_7094 (protein)
chain: SVEEVKKLIEELAANLDKDPEKAKELAKELSKYSEEEIEEALKDVELTPEQAAKIIDIFEEISLEKAEELALALAEAGSSEVSQVALEKLKEIEEEEEEE
B16: GBRAP_39_5710 (protein)
chain: EEKEELELLASYYEAVAAKKQVDAGISLEEFLEEQKKEIEELAKTDPENKEVYERLLKIMEEGNEVDKLIAAGLADALKAGLPKEEAEKIIDEVIRERKE
B17: GBRAP_160_4440 (protein)
chain: SEKLEAAIKEFEEEAAFVKELADEVSVEQFAKALDAEFGSVALELLEKGYITEETFDKIMAIIDEAVATLLANPDMSLEERKALIDETLEKIKEVIKEGA
B18: GBRAP_52_5979 (protein)
chain: MREEARRVARELLALRLAGDEEAARALLREIAATKSPEFIELVFEELARLAETATPEERDAIVELAIDLEDIALEAGFDEAEVDAGLARVAAAAVAALQA
B19: GBRAP_53_6425 (protein)
chain: MEERIRELEERARELAEKATKADEETLLKLTEQIVEVLAELKAAGAPDERIAELAREIARKLKAAGAPDRALVLLAQGMAALGLEEATAAVAEEAVEELE
B20: GBRAP_53_6405 (protein)
chain: SSEEIEKLKEEILKLTEEATKAGPEKAKELVKQIAEAFKKLKEAGASDEEIEKLAKEVAEKLKKAGADPRLFVELAQAYAELGLEEATAIMAEAAVEDLE
B21: GBRAP_57_6461 (protein)
chain: MSNLEKAIEHFDKAIELAKKGAPEEEILEEVKKALDHLDETLVRDILLLLDPEADADLSKEEAKERILEIIRETLKNEGREAAIEKLKLMKGQVEMASIE
B22: GBRAP_11_2634 (protein)
chain: KKEILKKAAETAAKAVKVLEKLLKEGVDNEELIKELKKLLEELEKLVKKLGNKALENDVKVAKELLEEALADPENAEFYINLLKAQMEIIEADLEELLEE
B23: GBRAP_35_5589 (protein)
chain: EDEELILDTLKDYAEATLWALKEEDDETALAMLKAFLKFAKRAIKDLKNNKEALKEIAKLIKEVIAAVKKYRADNPEFQKLLKELEKLLKEAEKLIKKNE
B24: GBRAP_11_2862 (protein)
chain: KKEKLEELLKLAKELIELLEQLIEEGATNEELLEEARKTLEEALKLAKELGDESLIKLAEIALEELEEAERNPETALQHLQEALAAARVLEGQILLLIDE
B25: GBRAP_52_6118 (protein)
chain: MAAELRARLEEALALLKAGREAEARALLAELAAALDEEGLEILAAELAALAAAAPPEDQDAVWRLAELLAEELEAAGWDPGLADDLLARVAAALHAREQA
B26: GBRAP_52_6091 (protein)
chain: MKEELEKKAEEIYEALRAGDLERVTELLKELVENYSDEEVLETIRLTAELMAKEPADERERMLDIFLEALDRVAEETGKEELMDIAEAETAAIMYEALQR
B27: GBRAP_128_3186 (protein)
chain: SVEEVRRYTREAMERIRESDLETAREIARELFERILTLTLEEAEAAIEVIEEMLPELSKEKLEIVADVAREVRPRLTPEKARLVAGLEVEALNRIEELEE
B28: GBRAP_52_6082 (protein)
chain: AEAAIAATADAITAAIAAGDLDGALALFAAAVKTFTAEEIKALLVRTAEKVAALGDDAHELFVDFLDRAEDIMIAAGISEDDALAIVGDAGAALARAVAA
B29: GBRAP_117_2574 (protein)
chain: HMSKEEVKELVRETVEEVIERLKEAEKLSPEEREKVLKELRERMKEVVRIALEVLSREEIEEIVEEALLSADAKTYFEAETIFLDALEEVEEEREREEEE
B30: GBRAP_35_5557 (protein)
chain: SSDEEILEMMTNTAEDAKLTIDDIPVDTAFEITTKIAEAALEILKKEKENVEGAKKLAEAVLDALDALIKRLKEEGAPQEKIEELEKLKEEIEKELKKIK
B31: GBRAP_52_6191 (protein)
chain: MREELREQVLEIYELVKAGKLEEAKKKAEELVKKLNDEELKLLTEVLAEVAKEAPLEDEDAVFKTAELLAEAMEKAGKDEVLAEDLLAAAAAALYEKELA
B32: GBRAP_26_5497 (protein)
chain: FLEEILEELRREIKEILKDESPELQAAVIATAEDLLLEADEEIEENAEDEEKIKEAIEKAVEEMRKELERFGLSEEKIEKIVEALRRALEKVAERIKEEA
B33: GBRAP_80_6855 (protein)
chain: DAARLAAALAALKEVLPEAAATAEEIVALARALGVPDAVIADYLEAMTELAKVDPELAAELLEETLADLRELAAEGDSEGAVAVLRGYAGEALLEAEELE
B34: GBRAP_83_6941 (protein)
chain: KEKIVVAAPGDKVEEAVEAAIDLHEEEGYEVDLEFIFTDEEAEKVLEEVKKVLEKGIEVDITLINTDSNEEALKKLVEEIKKAAKEAGVKVNVEGYVIEP
B35: GBRAP_80_6800 (protein)
chain: AEEELEEYLEEIEELDPELAERVRRIIEEAKEMGVPEEDLAELARAVAELLKVDPELAREEVEELEEELREEKERGDKENARATVRVAAGEMLLRVEELE
B36: GBRAP_128_3341 (protein)
chain: IDEEKLEEVKKLAEEMIKANKEEAKKLAKKLMELLVTLSLEEVEKAVEIIKKLLPKLSAEHLEILADELRKYRPLFSPEQALLINELEVEALNLAEEKEE
B37: GBRAP_83_6954 (protein)
chain: MITVVASSKPESIRSSVKAAIDLHKEEGKEVEIEILLTRENAPAALAALKELIDAGVEAKITLVTREADREAAEALAAEIKAYAAEKGVNVEVELVVEPE
B38: GBRAP_166_4978 (protein)
chain: KEEEIVEEVKKYIDELAEKMKTADYEEKLELLAEAAEKIKEAIDAGISKEQLRELILYLIKKALEVGLTLSDVEGALTIIADLDEEEIDLLDEAIEEVKK
B39: GBRAP_95_7077 (protein)
chain: DEDLEEIEILADTAIDLYEAGLKEQAAKVMKAAIEAAKENGYKVKDKELMTKLLKYFVELALEYFDAEEVEDALEIAKAIGAPQEIIDKLEEILKKLKEK
B40: GBRAP_53_6401 (protein)
chain: KEEKIKELIEEIEKLTEEATKADDEEREKLVKEIGKKLKELKEAGAPEEEIEKLVEKVAKRLKEAGAKDSHLVELAKKLEELGLEEATAKVGELLVEDLE
B41: GBRAP_184_5067 (protein)
chain: ETFEETLEVNNLEEAKKKMKELEEKIKNHKGNLILHLILPEYDKEIVEEVLKKLSEIKKKGYAKNITLGLDADLTEEEVDYALKLADEAGINLTVALPEE
B42: GBRAP_11_2763 (protein)
chain: KKEKKLEIAELAERLAEILDEILERGVDDEELLEEAREQLEKLTELVEKYGDEAEKKLAEILREEFEKALEDPENREEHLKNARTTARVLSGDFLLEAEE
B43: GBRAP_139_3743 (protein)
chain: AAAEKVRAEARALVAALAEDREAALAALADLLASLDEELRELAAKAIAEALLALDWDTAEAILEELARRLREEHGDEDGAEIVEAERNRTLALIAVREEA
B44: GBRAP_52_6164 (protein)
chain: MEERAEEYANRVLEAVRAGKEEELRKLLKEIAETLSEEEIVLMLEIIAERVPELTPEEAERVVEAALELEDILEEEGKNPELLSYQLARIAAAAYKRLQA
B45: GBRAP_160_4447 (protein)
chain: SEILEKLKKLVDETREEIKELIEGETHENRVVIVDVGFGELLLEFIENEEVSDELEDEVAEIVDETVEYLKENPDLTEEEIKELIDETAEKIKEAIEKHL
B46: GBRAP_39_5696 (protein)
chain: EEEEEAEDTFSYLEAIGAKEQVERGWSLEEVAKRTEELAAKFIAEHPEIAETLKELLKLAKEAGDLAILALYGLLLEAEKGLPLEEIKEKAEKLIAYLKS
B47: GBRAP_11_2639 (protein)
chain: KKELYKKAAELAEKAIKLLEELLKKGVDDEELLKKIRELLEKLEELVKKIPDEALQKEVEIAKELFEEMLKDKENAEKYAKLLLGQLRVLLAELEELIEE
B48: GBRAP_128_3582 (protein)
chain: SVAAARAYTRATLAAIRAAGPAERAALAAALAARLASLSPEERAAAADTIEELLPELSAEDLRALAAALRAADTSNSPELANLAAAVEVEALNKELEEEE

Target: GABARAP, O95166
Assay: median log2 fold change of GCK-ALFA target abundance (FLAG IP / Myc IP barcode read proportion) (log2 ratio); each designed protein is fused to an ALFA-tag nanobody in HEK293 cells to bring the named protein to FLAG-tagged glucokinase (GCK); Myc marks an untargeted standard; higher = target protein stabilised (more abundant)
Settings: target protein: 3xFLAG-MCP-GCK-ALFA reporter; HEK293 landing pad (RPLP)
Summary of the method: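 Binders fused to an ALFA nanobody were recombined as a library into HEK293 landing-pad cells, which were induced with 2 μg mL^−1 doxycycline and then transfected to express a FLAG-tagged target and a Myc-tagged standard. After 48 h, circular RNA barcodes recovered by anti-FLAG and anti-Myc immunoprecipitation of lysates were reverse transcribed, amplified and sequenced. Each binder's target abundance is the median log2 ratio of FLAG to Myc barcode read proportions, from barcodes present at ≥10^−7 in both replicates, binders carrying ≥3 barcodes per replicate, a 10^−6 pseudocount and pooled replicates.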

Chain of GABARAP, O95166 (O95166 whole entry, the tested form may be a part): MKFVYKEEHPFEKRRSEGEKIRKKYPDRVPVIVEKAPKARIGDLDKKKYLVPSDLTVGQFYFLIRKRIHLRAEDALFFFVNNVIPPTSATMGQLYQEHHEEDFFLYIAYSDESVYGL

Binder | median log2 fold change
B1 | 0.253
B2 | -0.0793
B3 | -0.0576
B4 | 0.00382
B5 | 0.314
B6 | 0.0673
B7 | -0.0137
B8 | 0.234
B9 | 0.326
B10 | 0.0126
B11 | -0.408
B12 | 0.117
B13 | -0.0412
B14 | -0.247
B15 | 0.204
B16 | 0.227
B17 | -0.372
B18 | -0.14
B19 | 0.223
B20 | 0.372
B21 | 0.373
B22 | -0.2
B23 | -0.0185
B24 | 0.251

Binder | median log2 fold change
B25 | 0.178
B26 | -0.0542
B27 | 0.2
B28 | 0.0364
B29 | 0.0518
B30 | -0.135
B31 | 0.126
B32 | 0.312
B33 | -0.356
B34 | 0.269
B35 | -0.181
B36 | 0.254
B37 | 0.202
B38 | 0.319
B39 | 0.181
B40 | 0.446
B41 | 0.412
B42 | 0.159
B43 | 0.221
B44 | -0.153
B45 | -0.273
B46 | 0.224
B47 | 0.0774
B48 | 0.164
